44 sequences from the supplement of paper PMC11417369 can be followed below.

± gives the standard deviation of the averaged measurements. This is one part of the list.

For this assay, the system named is PfAP2-EXP AP2 domain (GST-tagged). Kind of assay: gcPBM binding intensity (ln(normalized median fluorescence intensity)); higher = stronger DNA binding. The method in brief:
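GST-fused DNA-binding domains of P. falciparum, expressed in E. coli, were applied at about 25 μg on average for 1 h to an Agilent 4 × 180k array of primer-extended double-stranded 36-bp intergenic genomic probes and negative controls. Binding intensity is the highest Masliner-normalised natural-log median intensity across replicate spots of either probe orientation, measured with Alexa488 anti-GST antibody and a 488 nm scan.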
Turning to “TAAATATAACAGAATAATATGTGGATTAATAAATGA [CACACA_negctrl_site438]”, the “gcPBM binding intensity (ln)” value was 8.56 ± 0.23.

Take “TTAAGTTACAATTCTCGTACACATTAAAAGAAAATT [XGTACX_site699]”: the “gcPBM binding intensity (ln)” value stood at 8.6 ± 0.53.

For the sequence “AAAAAAAAAAAAAAAACACACATGTATACTAGAATA [CACACA_site7108]”, the “gcPBM binding intensity (ln)” value is 8.67 ± 0.31. As for “ATATAATATGTTGAATGTACTTAAAAAAATGTATCT [XGTACX_site5385]”, the “gcPBM binding intensity (ln)” value was found to be 8.49 ± 0.34. The figure for “GCATACATCAAGCACACACACACACGCACACGCACA [CACACA_site6311]” is 8.71 ± 0.5; for “ACTACGAATGGTAGAGTGCAGTCTGGAGAAGAGTAC [GTGCAC_site9685]” it is 9.17 ± 0.33. The value for “AAAAAAAAGAATTAGGCACACAATTTTAATATAGGA [CACACA_site1522]” was 8.41 ± 0.47; that for “TTATGTTTCATAAAAAATTAATCAAACATATATAAG [CACACA_negctrl_site666]” was 8.09 ± 0.4; that for “TTATGGATGGACAATAATAAAATTTTTACTTTTATT [CACACA_negctrl_site908]” was 8.49 ± 0.33. As for “GTGAAGTTCAAAATATGTACTTATGTATGTATTTTT [XGTACX_site165]”, the “gcPBM binding intensity (ln)” value amounted to 8.18 ± 0.16. For the sequence “TCATATATATTGAAATGTACTTATTTTTTCCTCATA [XGTACX_site6526]”, the “gcPBM binding intensity (ln)” value worked out at 8.45 ± 0.3. Turning to “CATACACAGAAACACACACACATATATACATATATA [CACACA_site1094]”, the “gcPBM binding intensity (ln)” value was 8.59 ± 0.56.

With “AAAAAAAAAATTATATATATATCCCTTATTTTTTCT [TGCATGCA_negctrl_site151]”, the “gcPBM binding intensity (ln)” value is 8.59 ± 0.67.

In the case of “TATACATAGAAACACACACACATAAATAAATATATA [CACACA_site1342]”, the “gcPBM binding intensity (ln)” value worked out at 8.84 ± 0.45.

As to “CCTTAAATAATATATTCACACAATATAACAAAAATT [CACACA_site4892]”, the “gcPBM binding intensity (ln)” value was 8.47 ± 0.35. The figure for “TGGTATATAAAACACACACACATATGTATATATATA [CACACA_site926]” is 9.23; for “ATATGTTTTAAGTGTACACATATAATGTATTTTGTT [CACACA_site4929]” it is 8.71 ± 0.25; for “TTGCTCATTGAAATTATACACACCAAATATATAAAT [CACACA_site2482]” it is 8.42 ± 0.44.

Take “TATTATGCTATTTAATGTACGGAATTTATATATATA [XGTACX_site564]”: the “gcPBM binding intensity (ln)” value amounted to 8.66 ± 0.14.

Regarding “AACCTATCTATAGGAACAATATATATATATATAATT [CACACA_negctrl_site1707]”, the “gcPBM binding intensity (ln)” value came to 8.64 ± 0.56. In the case of “TAAAAAAAAACATGATGTACATAAAATTTTTTACTT [XGTACX_site7056]”, the “gcPBM binding intensity (ln)” value is 8.57 ± 0.46. The value for “AAAATATATAAACGCACATATATTTATGTATATATA [CACACA_negctrl_site163]” was 8.64 ± 0.49; that for “TTATTAGAGATGTTAAGATATAGGGATAATTTCGAT [XGTACX_negctrl_site395]” was 8.34 ± 0.49; that for “TACATATATTTAAGGAGTACAAAAAATAATGATAAA [XGTACX_site3539]” was 8.99 ± 0.37. The value for “AAAAGGGAAAAAATTAAAATTATATATATATATATG [CACACA_negctrl_site137]” was 8.39 ± 0.18; that for “AAGCTTAAAAATGGGGGTACGTCATAGGGATTCAAC [XGTACX_site8080]” was 9.35 ± 0.52. The figure for “TTTGACACAATATTTTGTACGAAACTATTAATTCAA [XGTACX_site4853]” is 8.22 ± 0.32; for “AATATATAAACATATACACACAAAAACATATATATA [CACACA_site4855]” it is 8.79 ± 0.32. In the case of “AATGTACACGCACCCACACACAAACAAATATAAATA [CACACA_site7319]”, the “gcPBM binding intensity (ln)” value turned out to be 8.94 ± 0.67.

“TTACGAATGAATATATGTACATATATATATATATAT [XGTACX_site3790]”: the “gcPBM binding intensity (ln)” value was found to be 10.1 ± 0.51.

For the sequence “ATGTTTTCAAAAATAAAACATATAAATAAATAAATA [TGCATGCA_negctrl_site226]”, the “gcPBM binding intensity (ln)” value came out at 8.42 ± 0.4. The figure for “GACATAGTATTAAGTTGTACATATATAAAAATAAAT [XGTACX_site1583]” is 8.65 ± 0.32; for “TTGCTTTTCATTTATTGTACATACCCAGTAGGATAA [XGTACX_site3939]” it is 8.88 ± 0.41; for “TTATAATACCTACAAAGTACAAACTTAAATATGAAC [XGTACX_site5684]” it is 8.55 ± 0.41.

With “CAACAACAAATGAGAAGTACATAAATATTAACAATA [XGTACX_site4625]”, the “gcPBM binding intensity (ln)” value is 8.7 ± 0.57.

Consider “ATATATATATATATATGTACATAATGCATATAATAT [XGTACX_site6142]”, for which the “gcPBM binding intensity (ln)” value amounted to 10.2 ± 0.56. Turning to “GAAGGAAAAGATACGATAAAATAAGATATTAATTTA [GTGCAC_negctrl_site419]”, the “gcPBM binding intensity (ln)” value stood at 8.4 ± 0.42. Consider “TTAATACTTTTTTCTGTACACACTTGATTTACTATA [CACACA_site2799]”, for which the “gcPBM binding intensity (ln)” value came to 8.95 ± 0.44. On to “TTCTTCAATATATTCTTACACACTTAAAAAAAAAAA [CACACA_site228]”, for which the “gcPBM binding intensity (ln)” value amounted to 8.44 ± 0.35. Take “TAAACACCCATACATACACACATACATACACCCATA [CACACA_site5125]”: the “gcPBM binding intensity (ln)” value was 8.71 ± 0.64. The figure for “TTAAAGCTTGCATATACACACATACATAAATTCATA [CACACA_site7208]” is 8.48 ± 0.32.

Consider “GTATACAACATATGAACACACAAAATATTTTTTTTT [CACACA_site2928]”, for which the “gcPBM binding intensity (ln)” value was found to be 8.62 ± 0.52.

With “TATCTCCACAAAAGATGTACTCATATTAATTTATAA [XGTACX_site3535]”, the “gcPBM binding intensity (ln)” value turned out to be 8.26 ± 0.28. In the case of “ATATATTTATATTTTTGTACCCAAAATTGTTTGATG [XGTACX_site3581]”, the “gcPBM binding intensity (ln)” value is 8.57 ± 0.46.
